Assay results reported in publication PMC12136788.
The other results are listed elsewhere or left out.

B1: chr20:3963869:3963970:-|CDS|ENSG00000101236|unk|total|mutant (ssRNA)
RNA: GGGAGUUCUACAGUCCGACGAUCAAUCUGCCUCUCAACAUAUAUAUUGUGGUUUUUGGUACUGCUAUAUUUGUCUUCAUCCUCCGUUUACUCUUCUGUUGCUACUUGAUCCGGUAACCAAUUUUCAUUCUAUGUUACUUCAAACAACAGAGGAUUGAGCAUCA
B2: chr13:108210031:108210147:-|CDS|ENSG00000174405|unk|total|mutant (ssRNA)
RNA: GGGAGUUCUACAGUCCGACGAUCAUGGUUAAUAAUAAAAAGCCCGGGCAUGAGACUCUGAGAAAGAGGUAUGAGAUUCUCCGCCGUAUUUUUACACCAAUUCCAGGCCGAACCGAAACCGUGCAGAAAACACAAGCUCAUACUCAACAGAGGAUUGAGCAUCA
B3: chr13:38882223:38882324:+|3pUTR|ENSG00000150893|msi1|total|mutant (ssRNA)
RNA: GGGAGUUCUACAGUCCGACGAUCAGAAAAAUAAGGUCAGGAGAAAAAGAAUAAUGCCUACAGAUUAUCCUUCAGAUGCUGGCCCGAAUCCCCUUUGACUUCCCGCCAUAAGCUGGCCACAUUGGACAUCUUGGUCACUGCAGACAACAGAGGAUUGAGCAUCA
B4: chr5:154417748:154417849:+|3pUTR|ENSG00000164574|msi1|FALSE|unique (ssRNA)
RNA: GGGAGUUCUACAGUCCGACGAUCCAGCACCAGCUUUACAGGGCAGUGUUUCAGAUGGCCCUGAGCCCACGGAAAAGGCCAGGUAGACCUCCAAACUAGAAAUGCUGGCUGAUUUGCCCUGAUCCAUGCUUCCAUUUCCCUGUCCAACAGAGGAUUGAGCAUCA
B5: chr1:228494639:228494729:+|3pUTR|ENSG00000168159|msi1_unk|FALSE|overlapping (ssRNA)
RNA: GGGAGUUCUACAGUCCGACGAUCGCCAUCGUGUCUCAUCUUGCUGUUAUCUCUAGCUCUUUCCCUCCUCCCAUUUCCUUUAGUAGUUGAAUUUUGCAAAGCUUGUAGCAGUAGCUCAGUUGCCUGCAGCAUCCUUGUGUGUAGCAACAGAGGAUUGAGCAUCA
B6: chr18:67510860:67510961:-|3pUTR|ENSG00000171451|msi1|total|mutant (ssRNA)
RNA: GGGAGUUCUACAGUCCGACGAUCACUAAUAAUACUUACCAACCCACUUUGUGGAUAUGAAUCAGAAGAGUUUGUUUAUUCUUCCGUGUGUGUGUGUGUGUGCACGCGUGUAUGUGUUCAGUGUUGUUUGCACAGAGAGAUUGUCAACAGAGGAUUGAGCAUCA
B7: chr1:203741488:203741589:+|3pUTR|ENSG00000058668|msi1|FALSE|unique (ssRNA)
RNA: GGGAGUUCUACAGUCCGACGAUCGCCAGUUCAUGUCCCUGACUCUCACCUCCCAUUAGAUAAAUGAAGCCCACCCCCCUUUCUAGAGUGAUGAGAGUCAAGAAGAGGGGAUGUAUGAACGGCCAAAUUCCCAUGUGAGAGGAACAACAGAGGAUUGAGCAUCA
B8: ENSG00000070961:be:win_5201|3pUTR|ENSG00000070961|bound_else_gene|NA|bound_elsewhere_windowed (ssRNA)
RNA: GGGAGUUCUACAGUCCGACGAUCUUUAGAUGCAAUAAUUAACCAUAUGCUAGAAUGCCCACCUCUAAGCCAAUUGGAUUCUUUAGCUCUCUUUUUCUUUCCUUCAUCUACCUUCUUCUCUUUUUUGCCUCUGUCUUUACCCUUCAACAGAGGAUUGAGCAUCA
B9: chr3:98799561:98799662:-|CDS|ENSG00000057019|msi1|total|mutant (ssRNA)
RNA: GGGAGUUCUACAGUCCGACGAUCUUCAGUUGGUCAGCCCUCCACAUCCACUUUCAAGGCUACGGGGAACCAACCUCCCCCACCCGUGGGAACUUACAAUACACUUCUCUCCAGGACUGACAGCUGCUCCUCAGCCCAGGCCCACAACAGAGGAUUGAGCAUCA
B10: ENSG00000115464:stop:overlap|stop_codon|ENSG00000115464|stop_codon|NA|stop_codon (ssRNA)
RNA: GGGAGUUCUACAGUCCGACGAUCUCAGAAAGGAACAUACUCUCAAAAUAUUUACUUAUAUCAAUUCCUGGACACAGAGGAUGUAGAAGUACCAUUGCAUUUGCUUCGUUAUGUAUGUUUGUUUUGUGGGAAAAAUGGCCUUUCCAACAGAGGAUUGAGCAUCA
B11: chr1:61462620:61462721:+|3pUTR|ENSG00000162599|unk|FALSE|unique (ssRNA)
RNA: GGGAGUUCUACAGUCCGACGAUCCUGUGGGCGUCCAUUCUUAUUCAACUAAAUCUCCACAGGUUUUUUGAGCUGGUGUGGAUUAGUUUAACUCUUGUAUUCAACCAUUAGUGCUACCACCUUCUCACAUUACAAUACAAUUACCAACAGAGGAUUGAGCAUCA
B12: chr1:235808650:235808751:-|CDS|ENSG00000143669|unk|FALSE|unique (ssRNA)
RNA: GGGAGUUCUACAGUCCGACGAUCUGGAAAUGGGAUGCUUUAAAGGCUUAUCAGAACUUUGUUUUUGAAGAAGACAGAUUACAUAGUAUACAGAUUGCAAAUCACAUUUGCAAUUUAAUCCAGAAAGGCAAUAUAGUUGUUCAGCAACAGAGGAUUGAGCAUCA
B13: chr4:76160418:76160736:-|3pUTR|ENSG00000138760|msi1|FALSE|unique (ssRNA)
RNA: GGGAGUUCUACAGUCCGACGAUCAGUUCCUUCCUCAGUUUCAGUUCUUUCCAGUGUUUUGUAGCUCACUGUCACUCACUGAAUAGAGAAACGUGUGCCCUAUACUUCCUGUGACAAUCAUUUUGCUGACAGAAUGAUGGAUGUCAACAGAGGAUUGAGCAUCA
B14: chr15:38352922:38353023:+|3pUTR|ENSG00000166068|msi1|FALSE|unique (ssRNA)
RNA: GGGAGUUCUACAGUCCGACGAUCUACAUAUAAAUUUAUUUCUUUUGCAGAGCAUUAUAUUACUGGAUGUUUAAUUUACAAAAUAGUUGGGUAAAUGUUCCAACAAACUUUAAAGUACCUUGAAGUCAAAUUGUCUGUUUUUGUCAACAGAGGAUUGAGCAUCA

What follows are binders tested against MSI1 full-length (mouse, UniProt Q61474 1-362) (assay: nsRBNS (natural sequence RNA bind-n-seq); RBNS binding buffer (assumed for nsRBNS): 25 mM Tris pH 7.5, 150 mM KCl, 3 mM MgCl2, 0.01% Triton X-100, 500 ug/ml BSA, 20 U/ml SUPERase-In, 4 C; UNK is unkempt and MSI1 is Musashi-1; names of the RNAs are library labels; protein concentration not given here; high values mean tight binding).
UniProt Q61474, sequence (Q61474 whole entry): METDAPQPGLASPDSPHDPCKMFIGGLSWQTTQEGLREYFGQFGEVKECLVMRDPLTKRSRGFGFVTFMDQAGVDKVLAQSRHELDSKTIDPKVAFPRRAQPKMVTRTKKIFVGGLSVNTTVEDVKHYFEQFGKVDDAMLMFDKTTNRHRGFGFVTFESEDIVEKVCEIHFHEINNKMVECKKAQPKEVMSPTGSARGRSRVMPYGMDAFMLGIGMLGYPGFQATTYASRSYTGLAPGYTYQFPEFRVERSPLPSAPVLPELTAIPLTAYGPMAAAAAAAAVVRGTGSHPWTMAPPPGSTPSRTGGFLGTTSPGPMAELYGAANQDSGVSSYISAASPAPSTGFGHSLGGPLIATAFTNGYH

| Binder | binding signal |
| --- | --- |
| B1 | 0.745 enrichment R |
| B2 | 0.569 enrichment R |
| B3 | 0.318 enrichment R |
| B4 | 0.544 enrichment R |
| B5 | 21.5 enrichment R |
| B6 | 0.341 enrichment R |
| B7 | 1.45 enrichment R |
| B8 | 5.72 enrichment R |
| B9 | 0.482 enrichment R |
| B10 | 2.23 enrichment R |
| B11 | 3.44 enrichment R |
| B12 | 0.77 enrichment R |
| B13 | 0.321 enrichment R |
| B14 | 5.24 enrichment R |
